PubChem BioAssay AID588855 (National Center for Advancing Translational Sciences (NCATS), 2011)
The campaign covered roughly 410,000 compounds. About 5,000 (1.2%) were called active. This list was built around the results that the source calls inconclusive (neither active nor inactive); the mix of calls is not that of the screen. Calls come from the whole dose curve; as a rule, active = well fitted inhibition curve with a large enough effect; inconclusive = small, poorly fitted or top-dose-only effect; inactive = no such curve, though single readings can be large or run the other way. Potencies of inconclusive entries are doubtful fits and often do not repeat.

experiment: qHTS for Inhibitors of TGF-b; conditions: HepG2 CAGA-GFP TGF-b/SMAD3 reporter, GFP fluorescence, 18 h, TGF-beta stimulated, 500 pg/mL final; series mostly up to 46.1 µM; note: nearly all actives have a fitted effect of over 65% in size
How it was run: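 Cell-based qHTS in HEPG2 carrying a CAGA-GFP Smad reporter; compounds added before 500 pg/mL final TGF-beta, 18 h incubation at 37 degrees C, GFP fluorescence quantified per cell by imaging cytometry.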
Potency is the fitted concentration of half-maximal effect; tags give direction and shape of the fitted curve.

| Structure (SMILES) | Potency |
| --- | --- |
| Cc1c(C(=O)Nc2ccc(F)cc2)cn2c(nc3ccccc32)c1C#N | inactive |
| CN(C)S(=O)(=O)c1ccc(Cl)c(NC(=O)COC(=O)/C=C/c2ccc(S(=O)(=O)N3CCOCC3)cc2)c1 | inconclusive: 15.8 µM [inhibitor, single point] |
| CCOC(=O)c1sc(NC(C)=O)cc1C | inactive |
| CCn1c(/C=C/c2ccc(O)c(O)c2)nc2ccccc2c1=O | inconclusive: 35.5 µM [inhibitor, single point] |
| COc1ccc(-n2nc([N+](=O)[O-])c(=NC3CCN(Cc4ccccc4)CC3)n2O)cc1 | inconclusive: 22.4 µM [inhibitor, single point] |
| CC(C)Cc1ccc(S(=O)(=O)N2CCC(c3ccncc3)CC2)cc1 | inconclusive: 3.55 µM [inhibitor, partial curve, poor fit] |
| CCn1c(=O)cc(OCC(=O)NCc2cccnc2)c2ccccc21 | inconclusive: 20 µM [inhibitor, partial curve, poor fit] |
| COc1ccc2c(c1)c(=O)c(C(=O)c1ccc(C)c(C)c1)cn2CC(=O)Nc1ccc2c(c1)OCCO2 | inactive |
| CCCCNC(=O)C1CC(c2ccc(C(F)(F)F)cc2)=NO1 (configuration not stated) | inconclusive: 2.82 µM [inhibitor, single point] |
| Cn1c(N)c(C(=O)COC(=O)c2ccccc2C(=O)c2ccc(Cl)c([N+](=O)[O-])c2)c(=O)n(C)c1=O | inconclusive: 35.5 µM [inhibitor, partial curve, poor fit] |
| CCOc1ccc(N(Cc2cc3ccc(C)cc3[nH]c2=O)S(=O)(=O)c2ccccc2)cc1 | inconclusive: 35.5 µM [inhibitor, single point] |
| COc1ccc(NC(=O)C2COc3ccccc3C2)cc1Cl (configuration not stated) | inactive |
| COCCn1c(C)cc(/C=N/NC(=O)c2cc3ccccc3cc2O)c1C | inconclusive: 35.5 µM [inhibitor, single point] |
| CCN(C(=O)c1cc2cc(OC)ccc2oc1=O)c1cccc(C)c1 | inconclusive: 10 µM [inhibitor, partial curve, poor fit] |
| Cc1ccc(OCCNC(=O)[C@H]2O[C@@H](n3ccc(N)nc3=O)[C@H](O)[C@@H]2O)cc1C | inactive |
| CCn1c(=O)n(CC)c2cc(N3CCCC3)c(NC(=O)c3ccccc3F)cc21 | inactive |
| CCOC(=O)c1cccc(NC(=O)CCCn2nc(C)c3c(C)n(-c4ccccc4)nc3c2=O)c1 | inconclusive: 2.24 µM [inhibitor, full curve, poor fit] |
| CCOC(=O)c1c(C)n(-c2ccccc2)c2ccc(OC(=O)c3ccccc3NC(=O)C(C)C)cc12 | inconclusive: 25.1 µM [inhibitor, single point] |
| CCCCNS(=O)(=O)c1ccc2nc(SCC(=O)Nc3ccccc3)[nH]c2c1 | inconclusive: 22.4 µM [inhibitor, single point] |
| O=C(NCc1ccc(Cl)cc1)c1ccc2c(Cl)c3c(nc2c1)CCCC3 | inconclusive: 3.16 µM [inhibitor, full curve, poor fit] |
| Clc1ccccc1OCCN1CCC(Cc2ccccc2)CC1 | inconclusive: 35.5 µM [inhibitor, single point] |

| Structure (SMILES) | Potency |
| --- | --- |
| Cc1ccc(C)c(N2CCN(C(=O)CCC(=O)Nc3ccc4nc(N5CCCCC5)cc(C)c4c3)CC2)c1 | inconclusive: 20 µM [inhibitor, partial curve, poor fit] |
| Cc1ccc(C)c(N2CCN(Cc3nnnn3C3CCCCC3)CC2)c1 | inactive |
| Cc1cn(C2CC3OCC(NC(=O)C(Cc4ccccc4)NC(=O)OC(C)(C)C)C3O2)c(=O)[nH]c1=O (configuration not stated) | inactive |
| CC(=O)N(Cc1cc2ccccc2[nH]c1=O)c1ccc(C)cc1 | inactive |
| COc1ccc(S(=O)(=O)N(CC(=O)NCCSc2ccccn2)c2ccccc2)cc1 | inactive |
| O=c1[nH]c(C2CCN(S(=O)(=O)c3ccccc3C(F)(F)F)CC2)nc2c1nnn2Cc1ccccc1 | inconclusive: 35.5 µM [inhibitor, single point] |
| C[n+]1ccc(/C=N/Nc2nc(Cl)c(C#N)c(Cl)c2Cl)cc1 | inconclusive: 5.01 µM [inhibitor, partial curve] |
| CN=C1c2cc3cc(OC)ccc3n2CCN1C | inconclusive: 6.31 µM [inhibitor, single point] |
| CCCCCCNc1nc(NCc2ccco2)nc(OCC)n1 | inconclusive: 35.5 µM [inhibitor, partial curve, poor fit] |
| O=C1CC(Cc2ccccc2)C(=O)N1Cc1ccco1 (configuration not stated) | inconclusive: 22.4 µM [inhibitor, partial curve, poor fit] |
| COc1cc(C=O)ccc1OS(=O)(=O)c1ccccc1[N+](=O)[O-] | inconclusive: 35.5 µM [inhibitor, single point] |
| Brc1ccc(Cn2c(-c3cncs3)nc3ccccc32)cc1 | inactive |
| O=C(N/N=C/c1ccc(N2CCOCC2)cc1)c1ccccc1OCCOc1ccccc1 | inactive |
| COc1ccc(NC(=S)N(CCc2c(C)[nH]c3ccccc23)Cc2ccco2)cc1 | inconclusive: 35.5 µM [inhibitor, single point] |
| Cn1cnnc1SCC(=O)c1c[nH]c2ccccc12 | inactive |
| O=C(Nc1ccc(CSc2ccccc2)cc1)c1ccco1 | inconclusive: 35.5 µM [inhibitor, single point] |
| COc1ccccc1CNS(=O)(=O)c1c(C(=O)N2CCCCC2)c(C)n(C)c1C | inactive |
| CNC[C@H](CC1CCCCC1)NC[C@H](Cc1ccccc1)NCCC12CC3CC(CC(C3)C1)C2 | inconclusive: 35.5 µM [inhibitor, single point] |
| COc1cc(NC(=O)CCc2c(C)nn(-c3ccc(N4CCOCC4)nn3)c2C)cc(OC)c1OC | inconclusive: 8.91 µM [inhibitor, partial curve, poor fit] |
| CC1=C(C(=O)OCc2ccc(C)cc2)C(c2ccccc2F)CC(=O)N1 (configuration not stated) | active: 11.2 µM |
| O=[N+]([O-])c1ccccc1CN1CCN(Cc2c[nH]c3ccccc23)CC1 | inconclusive: 17.8 µM [inhibitor, single point] |
